Experimental data as given in article PMC12831199.
Results are given in words; binding and its absence hold for the method and conditions named. Binding seen in cells or lysates may run through a third protein. Some binding calls cover weakened binding; strength is not graded here. For some of these results: Tags and fused reporters may be left off the sequences shown.

Protein sequences, listed by entry. Tags and fused reporters are not part of them. Lines headed by an entry give the natural chain unless they say otherwise; changes in a name come on top. Chains listed by the source or under a name are the forms on record and can include a tag or linker. Residues count along the entry.
UniProt P23201: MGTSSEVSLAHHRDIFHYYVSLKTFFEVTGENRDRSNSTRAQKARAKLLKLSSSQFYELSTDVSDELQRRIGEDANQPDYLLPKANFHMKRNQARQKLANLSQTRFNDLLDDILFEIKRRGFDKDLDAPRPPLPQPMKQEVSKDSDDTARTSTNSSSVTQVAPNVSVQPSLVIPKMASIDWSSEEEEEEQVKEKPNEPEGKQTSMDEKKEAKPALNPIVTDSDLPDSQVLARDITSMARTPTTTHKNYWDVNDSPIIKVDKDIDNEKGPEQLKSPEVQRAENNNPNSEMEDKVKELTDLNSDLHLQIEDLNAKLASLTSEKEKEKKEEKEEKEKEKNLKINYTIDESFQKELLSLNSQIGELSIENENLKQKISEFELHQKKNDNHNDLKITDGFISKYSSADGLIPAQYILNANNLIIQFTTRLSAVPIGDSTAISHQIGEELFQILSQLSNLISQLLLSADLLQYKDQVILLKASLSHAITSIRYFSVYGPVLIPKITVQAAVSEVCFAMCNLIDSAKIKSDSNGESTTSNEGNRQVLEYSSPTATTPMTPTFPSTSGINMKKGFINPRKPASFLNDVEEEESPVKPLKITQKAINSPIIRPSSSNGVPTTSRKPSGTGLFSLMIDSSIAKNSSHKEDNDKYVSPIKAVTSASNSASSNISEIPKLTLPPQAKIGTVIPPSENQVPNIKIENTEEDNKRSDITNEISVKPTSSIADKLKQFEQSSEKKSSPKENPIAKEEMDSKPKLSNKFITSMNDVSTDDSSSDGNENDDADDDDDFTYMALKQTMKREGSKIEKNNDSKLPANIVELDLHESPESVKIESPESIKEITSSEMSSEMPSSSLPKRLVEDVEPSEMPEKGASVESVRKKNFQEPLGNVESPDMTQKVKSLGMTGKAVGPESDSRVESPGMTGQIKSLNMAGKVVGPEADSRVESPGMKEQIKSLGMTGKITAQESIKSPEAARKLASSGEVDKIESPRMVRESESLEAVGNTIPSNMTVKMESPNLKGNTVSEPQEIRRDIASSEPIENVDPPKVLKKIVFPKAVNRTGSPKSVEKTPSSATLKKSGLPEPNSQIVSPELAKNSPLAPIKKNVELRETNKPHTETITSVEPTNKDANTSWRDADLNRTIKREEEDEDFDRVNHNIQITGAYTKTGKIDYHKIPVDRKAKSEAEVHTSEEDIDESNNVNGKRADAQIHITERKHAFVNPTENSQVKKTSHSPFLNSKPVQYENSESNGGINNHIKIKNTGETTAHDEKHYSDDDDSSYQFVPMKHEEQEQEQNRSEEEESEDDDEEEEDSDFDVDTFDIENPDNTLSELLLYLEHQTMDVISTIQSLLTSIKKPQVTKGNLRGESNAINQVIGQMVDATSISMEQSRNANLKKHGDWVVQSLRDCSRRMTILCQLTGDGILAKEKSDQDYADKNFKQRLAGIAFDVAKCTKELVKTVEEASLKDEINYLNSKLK
SHD1CRU: residues 1-124 of P23201
SHD1CRU with L51A (P23201, form named): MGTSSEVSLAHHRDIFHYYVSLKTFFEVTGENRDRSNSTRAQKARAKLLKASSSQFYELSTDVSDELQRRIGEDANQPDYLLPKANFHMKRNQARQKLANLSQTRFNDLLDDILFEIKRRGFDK
SHD1CRU with L101A (P23201, form named): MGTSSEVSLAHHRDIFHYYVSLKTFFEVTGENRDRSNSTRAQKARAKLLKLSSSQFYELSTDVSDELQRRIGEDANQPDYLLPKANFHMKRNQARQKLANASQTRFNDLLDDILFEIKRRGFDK
SHD1CRU with L109A (P23201, form named): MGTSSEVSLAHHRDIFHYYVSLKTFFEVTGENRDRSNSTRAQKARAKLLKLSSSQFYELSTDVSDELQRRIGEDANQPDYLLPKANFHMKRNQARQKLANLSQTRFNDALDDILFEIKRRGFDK
SHD1CRU with L48A (P23201, form named): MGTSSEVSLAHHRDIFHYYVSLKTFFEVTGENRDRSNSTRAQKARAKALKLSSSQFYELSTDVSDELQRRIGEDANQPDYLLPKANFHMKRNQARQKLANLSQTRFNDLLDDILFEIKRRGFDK

Columns and labels:
[1] = biological target: T1, Msb3CRU (Saccharomyces cerevisiae) (UniProt P48566); test: split reporter; small-scale Split-Ub: diploid cells co-expressing a Nub and a CRU fusion spotted in 10-fold serial dilutions from OD600=1 on SD medium with 5-FOA, 30°C, 2-5 days
T1 sequence: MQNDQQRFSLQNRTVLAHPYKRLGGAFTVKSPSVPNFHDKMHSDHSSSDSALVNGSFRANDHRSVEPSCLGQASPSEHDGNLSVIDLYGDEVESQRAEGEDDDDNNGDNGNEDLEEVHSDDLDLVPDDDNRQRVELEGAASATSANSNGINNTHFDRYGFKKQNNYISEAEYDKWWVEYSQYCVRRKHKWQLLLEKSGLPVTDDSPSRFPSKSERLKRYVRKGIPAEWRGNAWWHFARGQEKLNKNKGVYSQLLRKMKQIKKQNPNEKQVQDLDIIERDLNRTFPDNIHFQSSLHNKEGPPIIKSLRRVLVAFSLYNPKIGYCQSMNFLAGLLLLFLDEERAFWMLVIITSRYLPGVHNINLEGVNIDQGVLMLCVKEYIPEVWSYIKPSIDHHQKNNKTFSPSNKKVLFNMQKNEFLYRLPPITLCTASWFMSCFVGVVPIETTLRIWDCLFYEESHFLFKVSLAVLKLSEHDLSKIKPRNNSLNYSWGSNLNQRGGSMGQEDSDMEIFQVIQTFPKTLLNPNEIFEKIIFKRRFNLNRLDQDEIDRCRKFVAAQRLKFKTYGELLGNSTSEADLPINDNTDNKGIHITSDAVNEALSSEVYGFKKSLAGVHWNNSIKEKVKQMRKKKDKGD

[2] = biological target: T1, Msb3CRU (Saccharomyces cerevisiae); test: split reporter; Split-Ub: four independent transformants each, directly transferred from selective medium onto 5-FOA medium (Fig. 1E)
[3] = biological target: T2, Msb4CRU (Saccharomyces cerevisiae) (UniProt Q12317); test: as above
T2 sequence: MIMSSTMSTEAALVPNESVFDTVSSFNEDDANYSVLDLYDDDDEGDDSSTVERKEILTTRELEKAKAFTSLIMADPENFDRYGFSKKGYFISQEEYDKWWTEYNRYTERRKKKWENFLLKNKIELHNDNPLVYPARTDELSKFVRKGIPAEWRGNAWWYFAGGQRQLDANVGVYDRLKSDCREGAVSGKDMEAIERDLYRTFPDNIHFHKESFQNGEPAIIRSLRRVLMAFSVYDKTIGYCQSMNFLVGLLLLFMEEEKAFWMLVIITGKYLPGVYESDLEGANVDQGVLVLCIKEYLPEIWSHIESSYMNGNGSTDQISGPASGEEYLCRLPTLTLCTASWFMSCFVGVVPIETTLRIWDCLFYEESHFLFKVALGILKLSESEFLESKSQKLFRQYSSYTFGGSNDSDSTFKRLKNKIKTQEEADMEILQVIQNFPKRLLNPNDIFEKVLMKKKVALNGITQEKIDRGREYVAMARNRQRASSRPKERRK

[4] = biological target: T3, Msb3_(Δ76-93)CRU (Saccharomyces cerevisiae) (UniProt P48566); test: as above
T3 sequence: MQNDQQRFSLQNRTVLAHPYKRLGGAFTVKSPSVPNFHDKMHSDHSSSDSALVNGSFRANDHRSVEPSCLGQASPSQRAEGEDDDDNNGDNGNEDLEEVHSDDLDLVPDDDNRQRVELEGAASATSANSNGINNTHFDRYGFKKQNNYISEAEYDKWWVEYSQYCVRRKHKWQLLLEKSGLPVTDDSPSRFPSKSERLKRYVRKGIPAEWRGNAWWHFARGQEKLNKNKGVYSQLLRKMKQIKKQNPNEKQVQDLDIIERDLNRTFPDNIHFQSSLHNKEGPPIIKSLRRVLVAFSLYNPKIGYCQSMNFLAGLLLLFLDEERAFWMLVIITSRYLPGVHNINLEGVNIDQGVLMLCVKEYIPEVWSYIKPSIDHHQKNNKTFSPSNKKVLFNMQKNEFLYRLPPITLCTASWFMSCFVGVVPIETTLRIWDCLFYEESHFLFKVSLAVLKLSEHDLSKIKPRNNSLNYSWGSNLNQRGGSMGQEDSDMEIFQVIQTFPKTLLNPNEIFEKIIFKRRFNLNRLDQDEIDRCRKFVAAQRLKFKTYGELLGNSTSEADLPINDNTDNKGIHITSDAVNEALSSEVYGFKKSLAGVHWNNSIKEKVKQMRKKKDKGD

[5] = biological target: T4, Msb4_(Δ27-44)CRU (Saccharomyces cerevisiae) (UniProt Q12317); test: as above
T4 sequence: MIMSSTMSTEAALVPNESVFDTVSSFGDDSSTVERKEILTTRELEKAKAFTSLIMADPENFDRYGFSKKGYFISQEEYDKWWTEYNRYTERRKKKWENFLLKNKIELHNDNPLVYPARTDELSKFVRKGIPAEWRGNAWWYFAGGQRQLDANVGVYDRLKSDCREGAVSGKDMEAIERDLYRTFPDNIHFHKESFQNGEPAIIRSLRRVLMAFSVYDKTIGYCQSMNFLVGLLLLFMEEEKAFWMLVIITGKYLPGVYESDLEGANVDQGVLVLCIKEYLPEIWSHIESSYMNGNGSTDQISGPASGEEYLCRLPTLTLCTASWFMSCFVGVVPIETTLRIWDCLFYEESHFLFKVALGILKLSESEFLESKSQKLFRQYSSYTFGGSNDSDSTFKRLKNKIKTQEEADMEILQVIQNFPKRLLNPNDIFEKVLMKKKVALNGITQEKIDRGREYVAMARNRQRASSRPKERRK

[6] = biological target: SHD1CRU (Saccharomyces cerevisiae) (UniProt P23201); test: split reporter; small-scale Split-Ub: diploid cells co-expressing a Nub and a CRU fusion spotted in 10-fold serial dilutions from OD600=1 on SD medium with 5-FOA, 30°C, 2-5 days
[7] = biological target: T5, Ste5CRU (Saccharomyces cerevisiae) (UniProt P32917); test: as above
T5 sequence: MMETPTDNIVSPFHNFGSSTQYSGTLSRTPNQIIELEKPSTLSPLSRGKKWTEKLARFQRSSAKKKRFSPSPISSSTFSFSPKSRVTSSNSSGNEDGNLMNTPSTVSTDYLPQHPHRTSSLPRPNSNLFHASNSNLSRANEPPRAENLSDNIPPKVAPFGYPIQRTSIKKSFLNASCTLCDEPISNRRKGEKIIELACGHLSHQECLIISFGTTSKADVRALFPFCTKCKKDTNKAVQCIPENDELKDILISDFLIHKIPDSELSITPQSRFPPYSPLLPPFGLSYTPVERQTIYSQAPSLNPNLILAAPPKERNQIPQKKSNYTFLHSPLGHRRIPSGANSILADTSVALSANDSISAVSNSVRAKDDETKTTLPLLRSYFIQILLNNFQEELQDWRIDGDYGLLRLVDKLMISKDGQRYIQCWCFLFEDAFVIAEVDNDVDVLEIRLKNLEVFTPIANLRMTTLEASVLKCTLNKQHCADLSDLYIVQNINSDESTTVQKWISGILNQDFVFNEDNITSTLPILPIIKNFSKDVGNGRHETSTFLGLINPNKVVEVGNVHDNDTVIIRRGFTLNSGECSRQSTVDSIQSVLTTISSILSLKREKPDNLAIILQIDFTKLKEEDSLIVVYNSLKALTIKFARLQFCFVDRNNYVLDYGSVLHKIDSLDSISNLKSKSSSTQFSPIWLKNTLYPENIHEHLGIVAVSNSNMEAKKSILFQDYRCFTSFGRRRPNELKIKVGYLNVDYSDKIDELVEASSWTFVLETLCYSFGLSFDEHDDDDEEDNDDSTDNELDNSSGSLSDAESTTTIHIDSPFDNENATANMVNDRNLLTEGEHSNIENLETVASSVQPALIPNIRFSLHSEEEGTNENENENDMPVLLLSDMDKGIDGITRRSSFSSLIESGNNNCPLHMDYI

[8] = biological target: SHD1CRU with L51A (Saccharomyces cerevisiae) (UniProt P23201); test: as above
[9] = biological target: SHD1_(K97D) (CRU fusion) (Saccharomyces cerevisiae) (UniProt P23201); test: as above
[10] = biological target: SHD1CRU with L101A (Saccharomyces cerevisiae) (UniProt P23201); test: as above
[11] = biological target: SHD1CRU with L109A (Saccharomyces cerevisiae) (UniProt P23201); test: as above
[12] = biological target: SHD1CRU with L48A (Saccharomyces cerevisiae) (UniProt P23201); test: as above
[13] = biological target: full-length Spa2CRU (Saccharomyces cerevisiae) (UniProt P23201); test: split reporter; foldback competition assay with full-length Spa2CRU extended at its N-terminus, Split-Ub as in Fig. 1E (transformants transferred onto 5-FOA medium) (Fig. 3B)
[14] = biological target: SHD1CRU (Saccharomyces cerevisiae) (UniProt P23201); test: split reporter; large-scale split-ubiquitin (Split-Ub) array: PMET17-SHD1CRU a-strain mated with a library of Nub-fusion α-strains; diploids as quadruplets on SD medium without methionine with 1 mg/ml 5-FOA and copper sulfate; colony growth indicates interaction

Row | binding [1] | binding [2] | binding [3] | binding [4] | binding [5] | binding [6] | binding [7] | binding [8] | binding [9] | binding [10] | binding [11] | binding [12] | binding [13] | binding [14] | Molecule
1 | binds | binds | binds | – | – | – | – | – | – | – | – | – | – | – | Nub–Spa2 (from UniProt P23201 1-1466)
2 | – | binds | binds | binds | binds | – | – | – | – | – | – | – | – | – | Nub–Sec4 (protein, UniProt P07560 1-215) MSGLRTVSASSGNGKSYDSIMKILLIGDSGVGKSCLLVRFVEDKFNPSFITTIGIDFKIKTVDINGKKVKLQLWDTAGQERFRTITTAYYRGAMGIILVYDVTDERTFTNIKQWFKTVNEHANDEAQLLLVGNKSDMETRVVTADQGEALAKELGIPFIESSAKNDDNVNEIFFTLAKLIQEKIDSNKLVGVGNGKEGNISINSGSGNSSKSNCC
3 | – | – | – | – | – | binds | binds | no binding | binds | no binding | no binding | no binding | no binding | binds | Nub–Ste7 (protein, UniProt P06784 1-515) MFQRKTLQRRNLKGLNLNLHPDVGNNGQLQEKTETHQGQSRIEGHVMSNINAIQNNSNLFLRRGIKKKLTLDAFGDDQAISKPNTVVIQQPQNEPVLVLSSLSQSPCVSSSSSLSTPCIIDAYSNNFGLSPSSTNSTPSTIQGLSNIATPVENEHSISLPPLEESLSPAAADLKDTLSGTSNGNYIQLQDLVQLGKIGAGNSGTVVKALHVPDSKIVAKKTIPVEQNNSTIINQLVRELSIVKNVKPHENIITFYGAYYNQHINNEIIILMEYSDCGSLDKILSVYKRFVQRGTVSSKKTWFNELTISKIAYGVLNGLDHLYRQYKIIHRDIKPSNVLINSKGQIKLCDFGVSKKLINSIADTFVGTSTYMSPERIQGNVYSIKGDVWSLGLMIIELVTGEFPLGGHNDTPDGILDLLQRIVNEPSPRLPKDRIYSKEMTDFVNRCCIKNERERSSIHELLHHDLIMKYVSPSKDDKFRHWCRKIKSKIKEDKRIKREALDRAKLEKKQSERSTH
